Assay results as given in the RNAGym collection of RNA variant scans (doi:10.7554/elife.90254).
The source gives no read counts; variants with many changes may rest on few reads.

B1: LINE1-mini (parent)
chain: GGCAGAGCUCAACACAGCGUGGCAAAGUGGCUGUGGCUAGACUGCC

Variants of: B1
Test: self-cleavage, relative activity (ratio to wild type); higher = more cleavage; in vitro, sequencing; the parent is a self-cleaving ribozyme

Row | Variant | self-cleavage
1 | G2U C15A U34A | 0.05
2 | G2U C8G C13A C37U | 0.05
3 | G2U C18A U32A | 0.01
4 | G2U C18A U32G | 0.19
5 | G2U A16G G36A C42A | 0.05
6 | G2U C13U A14C U20G A26G C31G A39C | 0
7 | G2U C3G C37U | 0.11
8 | G2U C8A G17C G30A | 0.05
9 | G2U C42A U43A | 0.07
10 | G2U G5A A14U U20A C31U | 0.01
11 | G2U G5U A25C | 0.04
12 | G2U A16U C37U G44U | 0.01
13 | G2U C3A U9A G33A C37G | 0.4
14 | G2U C10A A12C G44C | 0.01
15 | G2U A25C G33U G40A | 0.02
16 | G2U A14U C18A G36A | 0.02
17 | G2U C3U C10A G30U C37A | 0.03
18 | G2U A14G G17C U34C | 0.02
19 | G2U A26G G35A | 0.06
20 | G2U A16C G40A | 0.02
21 | G2U C13U A16U C37A | 0.02

Row | Variant | self-cleavage
22 | G2U G5U A14U A39G | 0.02
23 | G2U C10A C37U | 0.02
24 | G2U C3A G17C C31U | 0.1
25 | G2U C3A G17C C31A | 0.49
26 | G2U C13U G21U G33C C45A | 0.02
27 | G2U C13U C37U | 0.07
28 | G2U C13U C37A | 0.06
29 | G2U G5A C8U U9G G40C | 0.03
30 | G2U C8U C18U A25C G27U U28G | 0.02
31 | G2U A25C G36U | 0.01
32 | G2U A11U G27U | 0
33 | G2U C18A G22U G40U | 0.01
34 | G2U A26U C37A G40C | 0.02
35 | G2U A16U G17C | 0.02
36 | G2U C15G C18A G30C G44A | 0.01
37 | G2U C3U A12G | 0.04
38 | G2U C10A G19U C46U | 0.02
39 | G2U A39U U43G | 0.02
40 | G2U G5U A41U | 0.01
41 | G2U C13A G17C A26C C37G | 0
42 | G2U A24U G33A G35C C42G | 0.01

Row | Variant | self-cleavage
43 | G2U C13U G27U C31U G44A | 0.01
44 | G2U C8A G30C | 0.04
45 | G2U A16G C23U | 0.01
46 | G2U G5C U20C C23U G27C A41U | 0.02
47 | G2U G5A C10A U28C G33A A39G C42A | 0.01
48 | G2U A16C U34C C42A U43G C46U | 0.01
49 | G2U A12G C45G | 0.01
50 | G2U C15A C37A A39U A41C | 0.06
51 | G2U C10U C23G A41U C46A | 0.02
52 | G2U A11C U28G G33C U34G G36U C45U | 0.01
53 | G2U C3A G22A G29U C37G | 0.02
54 | G2U C10A C13U G36A | 0.05
55 | G2U A24C A25U G40U C46U | 0.02
56 | G2U C3A C8A A11C G22U A25C C45U | 0.01
57 | G2U A26U U34G | 0.06
58 | G2U A12C C15A C23U G40C | 0.02
59 | G2U C13U G17A C18A | 0.02
60 | G2U C13U A24U | 0.06
61 | G2U C3A U9A C15G U20A | 0.12
62 | G2U A11C U43A | 0.15
63 | G2U C23A G36C G40A | 0.02

Row | Variant | self-cleavage
64 | G2U A39C G44C | 0
65 | G2U A11G U28C | 0.01
66 | G2U C10G A14G G30A A41U | 0.01
67 | G2U A11G G30A | 0.01
68 | G2U C8A A16G U32G | 0.02
69 | G2U C13U G35C | 0.03
70 | G2U C8G U20C | 0.02
71 | G2U A11U G35U C42A | 0
72 | G2U C10A G44A | 0.02
73 | G2U C10A G40A C45G | 0.02
74 | G2U A14U A16C G21U U28G C45A | 0
75 | G2U G5C C10A C15G G17A | 0.02
76 | G2U C10G A12G G19C G21U A41C G44A | 0
77 | G2U G5A C23U | 0.03
78 | G2U A16U A39U G40U C45G | 0.11
79 | G2U C3A G17C U38G G40U | 0.13
80 | G2U C13U G30A | 0.04
81 | G2U G5A G36C | 0.05
82 | G2U A11U G21A | 0.02
83 | G2U G5A G35U | 0.03
84 | G2U C23G G30U G33C | 0.04
